{
  "sequences": {"note": "Amino acid sequences for entries named in this document (tags omitted). A change or cut given only in a name is not applied to a line headed by its entry. Chains listed by the source or under a name are the forms on record and can include a tag or linker. Residues count along the entry.", "UniProt Q76SB0": "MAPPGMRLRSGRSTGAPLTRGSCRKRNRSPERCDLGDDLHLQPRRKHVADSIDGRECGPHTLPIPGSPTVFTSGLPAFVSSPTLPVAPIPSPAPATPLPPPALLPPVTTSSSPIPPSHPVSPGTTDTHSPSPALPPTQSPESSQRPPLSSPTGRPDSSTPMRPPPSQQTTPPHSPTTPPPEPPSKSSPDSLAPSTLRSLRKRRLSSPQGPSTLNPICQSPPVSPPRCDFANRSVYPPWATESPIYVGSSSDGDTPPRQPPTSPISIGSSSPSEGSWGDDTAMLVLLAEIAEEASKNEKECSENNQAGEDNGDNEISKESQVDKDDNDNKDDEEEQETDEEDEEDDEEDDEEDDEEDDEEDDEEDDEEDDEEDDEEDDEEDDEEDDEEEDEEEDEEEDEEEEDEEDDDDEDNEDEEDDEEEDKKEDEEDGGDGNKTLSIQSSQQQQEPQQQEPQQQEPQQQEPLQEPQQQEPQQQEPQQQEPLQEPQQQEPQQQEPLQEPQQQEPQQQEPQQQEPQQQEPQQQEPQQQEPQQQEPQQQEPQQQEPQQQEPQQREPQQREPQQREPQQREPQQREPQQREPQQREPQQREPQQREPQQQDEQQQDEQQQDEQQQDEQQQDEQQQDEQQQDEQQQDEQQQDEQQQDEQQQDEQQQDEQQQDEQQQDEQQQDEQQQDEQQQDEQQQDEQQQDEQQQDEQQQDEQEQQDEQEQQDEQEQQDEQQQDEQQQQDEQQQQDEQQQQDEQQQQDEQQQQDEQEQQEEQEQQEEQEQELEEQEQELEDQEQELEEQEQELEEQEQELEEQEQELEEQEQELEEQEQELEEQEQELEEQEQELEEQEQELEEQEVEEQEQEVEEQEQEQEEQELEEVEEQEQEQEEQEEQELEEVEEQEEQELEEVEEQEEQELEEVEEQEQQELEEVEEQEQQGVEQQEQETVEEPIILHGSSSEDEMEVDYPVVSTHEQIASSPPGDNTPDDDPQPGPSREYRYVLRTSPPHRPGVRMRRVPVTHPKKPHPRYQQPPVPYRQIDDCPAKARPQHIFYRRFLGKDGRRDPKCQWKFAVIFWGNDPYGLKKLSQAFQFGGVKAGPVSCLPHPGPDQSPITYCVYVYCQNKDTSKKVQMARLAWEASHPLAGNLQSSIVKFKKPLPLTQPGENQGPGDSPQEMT", "GST-fused kLANA(934–1162) wt (Kaposi sarcoma-associated herpesvirus (KSHV))": "residues 934-1162 of Q76SB0", "UniProt P25440": "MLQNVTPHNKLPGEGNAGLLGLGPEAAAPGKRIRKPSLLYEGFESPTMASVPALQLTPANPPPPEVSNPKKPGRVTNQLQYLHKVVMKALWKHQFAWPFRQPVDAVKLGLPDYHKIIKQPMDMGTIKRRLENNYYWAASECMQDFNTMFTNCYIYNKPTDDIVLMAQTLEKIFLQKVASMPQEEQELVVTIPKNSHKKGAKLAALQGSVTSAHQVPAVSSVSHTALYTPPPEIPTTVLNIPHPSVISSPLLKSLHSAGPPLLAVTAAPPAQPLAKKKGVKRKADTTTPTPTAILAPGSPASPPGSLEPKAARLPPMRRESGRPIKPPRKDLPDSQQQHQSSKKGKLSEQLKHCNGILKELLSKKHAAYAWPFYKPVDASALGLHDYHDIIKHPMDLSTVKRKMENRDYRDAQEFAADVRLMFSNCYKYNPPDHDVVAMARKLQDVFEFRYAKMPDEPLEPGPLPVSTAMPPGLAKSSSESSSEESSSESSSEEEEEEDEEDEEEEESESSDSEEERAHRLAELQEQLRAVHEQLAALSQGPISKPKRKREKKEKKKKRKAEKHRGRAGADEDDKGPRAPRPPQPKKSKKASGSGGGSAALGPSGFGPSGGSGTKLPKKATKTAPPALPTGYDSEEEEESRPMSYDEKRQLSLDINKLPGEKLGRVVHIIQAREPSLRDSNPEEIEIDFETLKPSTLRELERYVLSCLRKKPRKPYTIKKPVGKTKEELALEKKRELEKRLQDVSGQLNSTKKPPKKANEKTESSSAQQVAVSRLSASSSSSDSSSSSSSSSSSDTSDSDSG", "GFP-tagged BRD2 C-terminal domain (CT; aa640-801)": "residues 640-801 of P25440", "GFP-tagged BRD2 ET domain (ET; aa640-719)": "residues 640-719 of P25440", "GFP-tagged BRD2(720–801)": "residues 720-801 of P25440"},
  "source": "paper PMC3798688",
  "key": {"[1]": {"biological_target": "GST-fused kLANA(934–1162) wt (Kaposi sarcoma-associated herpesvirus (KSHV)) (UniProt Q76SB0)", "assay": "pull-down; only the target purified"}, "GFP-BRD2 E683A": {"biological_target": "GFP-BRD2 E683A (UniProt P25440)", "assay": "co-IP; 293/293T cells co-transfected; lysis buffer 50 mM Tris pH 7.6, 60 mM NaCl, 0.5 mM EDTA, 1% glycerol, 0.2% NP-40; IP of GFP-BRD proteins with anti-GFP on Protein A beads, blot with anti-LANA"}, "GFP-BRD2 E682A": {"biological_target": "GFP-BRD2 E682A (UniProt P25440)", "assay": "co-IP; 293/293T cells co-transfected; lysis buffer 50 mM Tris pH 7.6, 60 mM NaCl, 0.5 mM EDTA, 1% glycerol, 0.2% NP-40; IP of GFP-BRD proteins with anti-GFP on Protein A beads, blot with anti-LANA"}, "[2]": {"biological_target": "GFP-tagged full-length BRD2 wt (UniProt P25440)", "assay": "co-IP; 293/293T cells co-transfected; lysis buffer 50 mM Tris pH 7.6, 60 mM NaCl, 0.5 mM EDTA, 1% glycerol, 0.2% NP-40; IP of GFP-BRD proteins with anti-GFP on Protein A beads, blot with anti-LANA"}, "GFP-BRD2 D687A": {"biological_target": "GFP-BRD2 D687A (UniProt P25440)", "assay": "co-IP; 293/293T cells co-transfected; lysis buffer 50 mM Tris pH 7.6, 60 mM NaCl, 0.5 mM EDTA, 1% glycerol, 0.2% NP-40; IP of GFP-BRD proteins with anti-GFP on Protein A beads, blot with anti-LANA"}, "GFP-BRD2 R648A": {"biological_target": "GFP-BRD2 R648A (UniProt P25440)", "assay": "co-IP; 293/293T cells co-transfected; lysis buffer 50 mM Tris pH 7.6, 60 mM NaCl, 0.5 mM EDTA, 1% glycerol, 0.2% NP-40; IP of GFP-BRD proteins with anti-GFP on Protein A beads, blot with anti-LANA"}, "[3]": {"biological_target": "GFP-tagged BRD2 C-terminal domain (CT; aa640-801) (UniProt P25440)", "assay": "co-IP; 293/293T cells co-transfected; lysis buffer 50 mM Tris pH 7.6, 60 mM NaCl, 0.5 mM EDTA, 1% glycerol, 0.2% NP-40; IP of GFP-BRD proteins with anti-GFP on Protein A beads, blot with anti-LANA"}, "GFP-BRD2 F688Y": {"biological_target": "GFP-BRD2 F688Y (UniProt P25440)", "assay": "co-IP; 293/293T cells co-transfected; lysis buffer 50 mM Tris pH 7.6, 60 mM NaCl, 0.5 mM EDTA, 1% glycerol, 0.2% NP-40; IP of GFP-BRD proteins with anti-GFP on Protein A beads, blot with anti-LANA"}, "[4]": {"biological_target": "GFP-tagged BRD2 ET domain (ET; aa640-719) (UniProt P25440)", "assay": "co-IP; 293/293T cells co-transfected; lysis buffer 50 mM Tris pH 7.6, 60 mM NaCl, 0.5 mM EDTA, 1% glycerol, 0.2% NP-40; IP of GFP-BRD proteins with anti-GFP on Protein A beads, blot with anti-LANA"}, "GFP-tagged BRD2(720–801)": {"biological_target": "GFP-tagged BRD2(720–801) (UniProt P25440)", "assay": "co-IP; 293/293T cells co-transfected; lysis buffer 50 mM Tris pH 7.6, 60 mM NaCl, 0.5 mM EDTA, 1% glycerol, 0.2% NP-40; IP of GFP-BRD proteins with anti-GFP on Protein A beads, blot with anti-LANA"}, "GFP-BRD2 E689A": {"biological_target": "GFP-BRD2 E689A (UniProt P25440)", "assay": "co-IP; 293/293T cells co-transfected; lysis buffer 50 mM Tris pH 7.6, 60 mM NaCl, 0.5 mM EDTA, 1% glycerol, 0.2% NP-40; IP of GFP-BRD proteins with anti-GFP on Protein A beads, blot with anti-LANA"}, "GFP-BRD2 E685A": {"biological_target": "GFP-BRD2 E685A (UniProt P25440)", "assay": "co-IP; 293/293T cells co-transfected; lysis buffer 50 mM Tris pH 7.6, 60 mM NaCl, 0.5 mM EDTA, 1% glycerol, 0.2% NP-40; IP of GFP-BRD proteins with anti-GFP on Protein A beads, blot with anti-LANA"}},
  "note": "No constants are given. Whether binding was seen depends on the method and setting. Binding seen in cells or lysates may run through a third protein. Some results given as binding are weak or reduced against the parent protein; the word gives no strength.",
  "data": [
    {"substance": "full-length (FL) kLANA(1–1162) wt (from UniProt Q76SB0 1-1162)", "values": [
      {"measurement": "binding", "setting": "[1]", "value": "binds"},
      {"measurement": "binding", "setting": "GFP-BRD2 E683A", "value": "no binding"},
      {"measurement": "binding", "setting": "GFP-BRD2 E682A", "value": "no binding"},
      {"measurement": "binding", "setting": "[2]", "value": "binds"},
      {"measurement": "binding", "setting": "GFP-BRD2 D687A", "value": "no binding"},
      {"measurement": "binding", "setting": "GFP-BRD2 R648A", "value": "binds"},
      {"measurement": "binding", "setting": "[3]", "value": "binds"},
      {"measurement": "binding", "setting": "GFP-BRD2 F688Y", "value": "no binding"},
      {"measurement": "binding", "setting": "[4]", "value": "binds"},
      {"measurement": "binding", "setting": "GFP-tagged BRD2(720–801)", "value": "no binding"},
      {"measurement": "binding", "setting": "GFP-BRD2 E689A", "value": "binds"},
      {"measurement": "binding", "setting": "GFP-BRD2 E685A", "value": "no binding"}
    ]}
  ]
}
